Laboratory results as given in PubChem BioAssay AID485294 (National Center for Advancing Translational Sciences (NCATS), 2010).
Out of some 370,000 compounds screened, about 150 (0.041%) were called active. The inconclusive results got no clear call from the source; some entries with a clear call stand among them for comparison. Calls follow the shape of the dose curve; as a rule, active = well fitted inhibition curve with a large enough effect; inconclusive = small, poorly fitted or top-dose-only effect; inactive = flat fitted curve, though single readings scatter. Potencies of inconclusive entries are left out as doubtful fits.

molecular target: Beta-lactamase (Escherichia coli (strain K12)) (UniProt P00811); assay: qHTS Inhibitors of AmpC Beta-Lactamase (assay with detergent); details: AmpC hydrolysis of nitrocefin, absorbance 480 nm, 0.01% Triton; series mostly up to 114 µM; also: nearly all actives have a fitted effect of over 25% in size
Summary of the method: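 AmpC (5.3 nM in the dispensed reagent) in 20 mM phosphate pH 7.0 with 0.01% (detergent screen) or 0.0001% Triton X-100 was preincubated with compounds for 15 min at room temperature. Nitrocefin was then added from an 800 uM solution, and hydrolysis was followed at 480 nm.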
Potency is read from the fitted curve at half-maximal effect; tags tell the direction and shape of the fitted curve.

UniProt P00811, sequence (P00811 whole entry, looked up): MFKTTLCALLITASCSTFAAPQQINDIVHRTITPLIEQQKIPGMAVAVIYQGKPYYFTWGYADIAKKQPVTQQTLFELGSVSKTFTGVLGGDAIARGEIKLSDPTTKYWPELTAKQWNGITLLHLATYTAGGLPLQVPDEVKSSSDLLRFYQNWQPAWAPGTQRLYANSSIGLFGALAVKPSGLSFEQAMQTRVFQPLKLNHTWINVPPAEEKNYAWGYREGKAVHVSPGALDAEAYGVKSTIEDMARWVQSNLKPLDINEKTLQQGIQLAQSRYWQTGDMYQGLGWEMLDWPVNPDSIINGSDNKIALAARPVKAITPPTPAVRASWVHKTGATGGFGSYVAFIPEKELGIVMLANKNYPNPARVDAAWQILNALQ

Compound	Potency
O=C(NCCNc1ccc([N+](=O)[O-])cc1)c1cccs1	inconclusive [inhibitor, partial curve, poor fit]
Cc1nc2c(C)cccc2c(SC(=N)N)c1CC=C(Cl)Cl	inactive
Cc1cc(C)c(S(=O)(=O)NCc2ccc3c(c2)cc(C)n3C)c(C)c1	inconclusive [inhibitor, full curve, poor fit]
CN(C)CCCNC(=O)c1cc(C(=O)C2CCCCC2)c[nH]1	inconclusive [inhibitor, full curve]
Cc1c(N=C/C=C/c2ccccc2)c(=O)n(-c2ccccc2)n1C	inactive
CCOC(=O)c1cccc(NC(=O)c2cc3ccccc3o2)c1	inactive
N#Cc1nc(-c2cccc3ccccc23)oc1NCC#CCOC(=O)c1cccs1	inconclusive [inhibitor, partial curve]
Cc1cccc(-c2cc3nc4c(c(NCc5ccco5)n3n2)CCCC4)c1	inconclusive [inhibitor, single point]
O=[N+]([O-])c1cccc(/C=N/Nc2ncc(Br)cn2)c1	inconclusive [inhibitor, full curve, poor fit]
O=C(Nc1ccc(Cl)cc1)C1C2C=CC3(O2)C1C(=O)N(CCCN1CCCCC1)C3C(=O)NC1CCCCC1 (stereo not given)	inactive
CCCc1cc(=O)oc2c(C)c3occ(C)c3cc12	inconclusive [inhibitor, partial curve, poor fit]
COc1cccc(NC(=O)c2cccc(C)c2[N+](=O)[O-])c1	inactive
CC(=O)c1c(C)[nH]c(C(=O)NNC(=O)COc2cc(C)cc(C)c2)c1C	inconclusive [inhibitor, full curve, poor fit]
CCN(c1ccccc1)S(=O)(=O)c1ccc(Cl)c(NC(=O)CSc2nnc(C)s2)c1	inactive
COc1ccc(CN2CCN(CC3CC3)CC2CCO)c(C)c1C (stereo not given)	inactive
CC(C)(C)c1ccc(C(=O)NCC(=O)OCCN2C(=O)c3ccccc3C2=O)cc1	inconclusive [inhibitor, full curve, poor fit]
CC(C)Nc1nc(NC(C)(C)C)nc(Oc2ccc(=O)n(-c3ccccc3)n2)n1	inconclusive [inhibitor, full curve, poor fit]
CC(C)c1ccc(Nc2nc3ccc(C(=O)c4ccccc4)cc3n3cnnc23)cc1	inactive
FC(F)(F)c1nnc2ccc(N3CCOCC3)nn12	inconclusive [inhibitor, full curve, poor fit]
COc1ccccc1CNC(=O)C(CCSC)NC(=O)C1CCC(C)CC1 (stereo not given)	inconclusive [inhibitor, full curve, poor fit]
